# Results taken from the supplement of paper PMC11417369.
# ± gives the standard deviation of the averaged measurements. Some of the results follow.
# Test system: PfAP2-I AP2 domain 3 (GST-tagged)
# Assay: gcPBM binding intensity (ln(normalized median fluorescence intensity)); higher = stronger DNA binding
# Method in brief: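 Binding intensity is defined as the maximum Masliner-normalised natural-log median intensity across replicate spots for either probe orientation. It was measured on an Agilent 4 × 180k array of primer-extended double-stranded 36-bp intergenic genomic probes and negative controls, to which GST-tagged P. falciparum DNA-binding domains made in E. coli were applied for 1 h in 1× PBS with 1% milk, 0.2 mg/ml BSA, 0.5% salmon testes DNA and 0.03% Triton X-100. Detection was by Alexa488 anti-GST antibody and scanning at 488 nm.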
row,Sequence,gcPBM binding intensity (ln)
1,GTTTGTATAGGTTCATGTACAAAAAAAAAAAAAAAA [XGTACX_site537],8.27 ± 0.46
2,ATGCATAAAAGAAATACACACATAAATATGTAAATA [CACACA_site7087],7.61 ± 0.42
3,ATTCATATGTGACACACACACACACGCATAAAAAAA [CACACA_site7515],8.34 ± 0.39
4,TTAAAACATATTTTGAATTAATATATTTTAATATTA [XGTACX_negctrl_site148],7.08 ± 0.43
5,TAGCGTACATTTCATTGTAATCATAAAAAATAAAGA [CACACA_negctrl_site447],8.17 ± 0.085
6,TTTATTAGAACCGTACGTACATAGTTATTTTTTCAA [XGTACX_site8848],7.69 ± 0.51
7,ACAAAAATATATATATGTACATATATCATCATAATA [XGTACX_site5850],7.68 ± 0.45
8,AATTAAAAATATAAATGTACATATATGTAAAACTTT [XGTACX_site123],7.86 ± 0.56
9,CCCATGCATTTTTGCACACACATATATATATAAATA [CACACA_site1430],9.87 ± 0.26
10,TTAATCATAAAAGTCACACATAATAAGAAAAAGCTT [CACACA_site4616],7.62 ± 0.73
11,AATATATGAATTAGAAGTACAAATAAATATTTATTT [XGTACX_site2062],7.78 ± 0.64
12,AATACAATTTATAACACACACACAATAATACATATA [CACACA_site1252],7.92 ± 0.35
13,GTATTTTTTTTAATATGTACATATAAAATATTTTAT [XGTACX_site8329],8.28 ± 0.23
14,ATATAAGTTTATATATGTACATATATATATTATATA [XGTACX_site2068],7.65 ± 0.35
15,AATTCATTTAAAAGTTGTACAAGCTTAATAAAAAAA [XGTACX_site6073],8.14 ± 0.65
16,ATATACACATAAAGTAGTACACCTGAAATTTTTTTT [XGTACX_site2951],8.13 ± 0.26
17,GAGGATATATTATATGTACACACATATATAACGGAT [CACACA_site8361],8.13 ± 0.45
18,ATAATAAAAAAAAAATGTACATAAATCTAAAATCCT [XGTACX_site5823],7.71 ± 0.54
19,ATATATTTAAATAAAAGTACGTAAAGGTATATTTAA [XGTACX_site8088],7.91 ± 0.56
20,CCTCCCATTTTTACACGTACACATTTAAAATAGACT [XGTACX_site5640],8.46 ± 0.52
21,TGAAGAAAATATTAATGTACATATTATATATATATA [XGTACX_site5497],9.06 ± 0.16
22,TGTAGTCTGGAGAAAAGTACATAGTATCTGATAACC [XGTACX_site2018],7.96 ± 0.54

row,Sequence,gcPBM binding intensity (ln)
1,GTGCATATATGATATACACACAATATAATAGTATGT [CACACA_site2460],9.88 ± 0.73
2,AATATAATGTAATATACACACATATATTTCTCTTTT [CACACA_site5451],7.48 ± 0.61
3,AAGAGTTTGAAGTTTGCACACTACGTTAAAAATAAA [CACACA_site3939],8.56 ± 0.28
4,AAAAATTTATTTTTAGGTACACAATTGAATTATTTA [XGTACX_site7008],7.62 ± 0.15
5,CCACATTTTACAGACACACACAATTTATATTACGGT [CACACA_site1894],7.86 ± 0.46
6,ATTATAAATAAAATATGTACATATGTATAAATACAT [XGTACX_site4002],7.65 ± 0.34
7,AAAACACATACTATATGTACATATAATAATTTATAT [XGTACX_site4525],7.86 ± 0.44
8,AAGAAAAAAAAAAAAAAAAAAAAAAAAAAAAAAAAA [TGCATGCA_negctrl_site263],8.38 ± 0.89
9,TTCTGTATATAGTGTGCACACAATTAAAAAAAAAAA [CACACA_site8400],9.98 ± 0.27
10,TTGCACTCGTAAAAAGCACACATATAAAAACATTTA [CACACA_site7997],8.26 ± 0.071
11,TTAAAAATGTTATAATGTACATATAATATTTTATGA [XGTACX_site5954],7.66 ± 0.4
12,TATATATATATATATATATATATTTTTATTATATAT [XGTACX_negctrl_site89],9.2 ± 0.68
13,ATTATAAATATAAATATAAATATATATTGTTCCGCA [TGCATGCA_negctrl_site470],7.28 ± 0.5
14,TTTATCCTTCTTTTGAGTACTCAAAGAGACCTATAA [XGTACX_site8050],8.13 ± 0.35
15,AAAAAAAACAGACACACACACAAATATTTATATATC [CACACA_site6342],7.69 ± 0.55
16,TATATAATAACATATGCATGCAAGTAATATAACCAA [TGCATGCA_site324],8.72 ± 0.54
17,TATAATATATATGTAACACACAAAAGTTATATACTT [CACACA_site2868],7.54 ± 0.55
18,AAAAAAAATCAGACAGGTACACATTCCATGTTCAAA [XGTACX_site5380],7.38 ± 0.63
19,CATTAATATATATATAGTACATATACACCTTCATTA [XGTACX_site8473],7.8 ± 0.47
20,ATATATTATATTTAAGTGCATTAATTAAAATGCTTA [GTGCAC_site9403],11.1 ± 0.73
21,TAAGAATACGAAAGGTGTACACTGTGGAGACTTCAA [XGTACX_site2619],8.03 ± 0.59
